Assay results as given in PMC4336329 (PLoS ONE, 2015).
Hit rate of the full screen: of about 310,000 compounds, about 14,000 (4.5%) showed an effect of 50% or more. Effects have a minus sign here. The list shows a part of the results.

Each molecule was assayed against human ether-à-go-go-related gene (hERG) potassium channel (human, UniProt Q12809) (assay: primary screen, population patch clamp on CHO cells stably expressing hERG).
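Also: peak tail current of the secondary pulse compared with the same well before compound.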

human ether-à-go-go-related gene (hERG) potassium channel, sequence (Q12809 whole entry, looked up): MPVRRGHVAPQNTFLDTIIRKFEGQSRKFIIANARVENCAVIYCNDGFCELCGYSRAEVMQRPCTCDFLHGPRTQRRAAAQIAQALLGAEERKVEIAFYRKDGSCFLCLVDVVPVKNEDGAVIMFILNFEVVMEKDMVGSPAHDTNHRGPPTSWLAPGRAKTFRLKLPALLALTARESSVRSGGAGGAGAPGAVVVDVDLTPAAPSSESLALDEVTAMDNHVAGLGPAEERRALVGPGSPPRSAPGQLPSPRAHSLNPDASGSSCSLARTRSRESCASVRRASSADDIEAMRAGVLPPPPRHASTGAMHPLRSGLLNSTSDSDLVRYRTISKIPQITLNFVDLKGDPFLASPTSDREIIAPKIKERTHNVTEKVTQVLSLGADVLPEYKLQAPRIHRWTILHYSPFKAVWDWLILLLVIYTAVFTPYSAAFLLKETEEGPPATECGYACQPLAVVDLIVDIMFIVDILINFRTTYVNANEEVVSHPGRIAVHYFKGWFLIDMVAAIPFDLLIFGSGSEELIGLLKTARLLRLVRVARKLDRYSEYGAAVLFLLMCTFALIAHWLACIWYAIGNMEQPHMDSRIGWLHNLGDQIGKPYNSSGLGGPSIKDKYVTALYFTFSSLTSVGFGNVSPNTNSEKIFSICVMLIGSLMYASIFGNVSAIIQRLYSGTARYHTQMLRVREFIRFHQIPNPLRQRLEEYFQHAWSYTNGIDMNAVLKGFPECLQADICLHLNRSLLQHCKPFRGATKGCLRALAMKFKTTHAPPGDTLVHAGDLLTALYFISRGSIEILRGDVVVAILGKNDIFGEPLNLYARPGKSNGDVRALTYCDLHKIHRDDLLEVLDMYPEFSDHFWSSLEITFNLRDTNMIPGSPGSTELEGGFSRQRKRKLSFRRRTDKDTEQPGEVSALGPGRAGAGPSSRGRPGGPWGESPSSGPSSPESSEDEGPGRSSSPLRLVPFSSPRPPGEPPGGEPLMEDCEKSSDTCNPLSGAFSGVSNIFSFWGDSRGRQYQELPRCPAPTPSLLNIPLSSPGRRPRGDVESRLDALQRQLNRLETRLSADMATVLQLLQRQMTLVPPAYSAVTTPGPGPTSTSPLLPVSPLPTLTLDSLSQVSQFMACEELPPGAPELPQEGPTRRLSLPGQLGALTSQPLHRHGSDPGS

In order of rising “hERG current change (%, negative = inhibition) at 10uM” value:
1. Cc1ccc(N2CCN(CCCCN3C(=O)C4CCCN4C3=O)CC2)cc1.Cl (stereo not drawn)  -23.9%
2. Cc1ccc(CNC(=O)c2ccc(Cn3nc(C)cc3C)o2)cc1  -19.1%
3. O=C(CSc1nnc(COc2ccc(Br)cc2)o1)N1CCOCC1  -17%
4. Cc1ccc(NC(=O)N2CCC(c3ccccc3)C2)cc1C (stereo not drawn)  -16.7%
5. CCOc1ccccc1NC(=O)CSc1ccc(-c2ccco2)nn1  -16.6%
6. COc1ccc2nc(NC(=O)CN3CCOCC3)sc2c1  -14.8%
7. COc1ccc(NC(=O)CSc2nnc(CNC(=O)COc3ccc(Cl)cc3)o2)c(OC)c1  -12.9%
8. CC(=O)N/N=C(\C)c1cccc(NC(=O)c2cccs2)c1  -11.1%
9. Cc1cc(N2CCC(C)CC2)c(F)cc1[N+](=O)[O-]  -9.64%
10. COC(=O)c1ccc(C(=O)OC)c(NS(=O)(=O)c2ccc(NC(C)=O)cc2)c1  -9.32%
11. CCOc1cc(/C=C2\C(=O)ON=C2c2ccccc2)cc(Br)c1O  -8.18%
12. COc1ccccc1C(=O)N(C)c1nnc(-c2ccccc2)s1  -5.79%
13. CCCCc1ccc(-c2csc(/C(C#N)=C\c3ccco3)n2)cc1  -5.37%
14. CC(C)NC(=O)CSc1ccccc1C(=O)NCc1ccc2c(c1)OCO2  -2.28%
15. COc1ccc(C(=O)NNC(=O)C(=O)NC2CCCCC2)cc1  -2.26%
16. Fc1cccc(C2NC(=S)NC3=C2N2CCC3CC2)c1 (stereo not drawn)  -1.84%
17. COc1ccc(NC(=O)COc2ccc(C(=O)OCC(=O)N(C(C)C)C(C)C)cc2OC)cc1  -1.01%
18. O=C(NCc1ccccc1)c1cc(=O)c2ccccc2o1  -0.107%
19. O=c1[nH]c(=S)n(-c2ccccc2F)c(O)c1C=Nc1ccc(N2CCOCC2)cc1  0.651%
20. COc1ccc(S(=O)(=O)N2CCOC2CNC(=O)C(=O)NCC(C)C)cc1OC (stereo not drawn)  1.8%
21. Cc1ccc(/C=C/C(=O)O)cc1S(=O)(=O)NCCCC(=O)O  3.13%
22. Cc1cccc(NC(=O)Cn2c(=O)n(CCc3c[nH]c4ccccc34)c(=O)c3cccnc32)c1  3.29%
23. COc1ccc(-c2nc(CS(=O)(=O)CC(=O)Nc3cccc(C(C)=O)c3)c(C)o2)cc1  3.62%
24. O=C(CSC(=S)N1CCCC1)c1ccccc1  4.99%
25. Cc1onc(-c2c(Cl)cccc2Cl)c1C(=O)NCc1ccc(S(N)(=O)=O)cc1  5.06%
26. COc1ccc(C)cc1S(=O)(=O)NC1CCCCC1C (stereo not drawn)  5.07%
27. COc1ccc(-c2coc3cc(O)cc(O)c3c2=O)cc1OC  5.23%
28. Cc1cccc(N2CN(Cc3ccco3)CNC2=S)c1C  5.48%
29. N#Cc1ccc(C(=O)Nc2cccc3cccnc23)c(F)c1  6.49%
30. Cc1c(OCC(=O)NC(Cc2ccc(Cl)cc2)C(=O)O)ccc2c(-c3ccccc3)cc(=O)oc12 (stereo not drawn)  6.68%
31. CCc1ccc2c(c1)C(=O)C(=O)N2CCS(=O)(=O)c1ccccc1  6.76%
32. CC(C)C(=O)NC(=S)Nc1ccccc1C(=O)NC1CCCCC1  7.39%
33. COc1ccc([C@H]2CC(=O)C=C(c3cc(Cl)ccc3OC)C2)cc1  7.4%
34. O=C(CSc1n[nH]c(=O)[nH]c1=O)N/N=C/c1ccccc1  8.14%
35. O=C(O)c1ccccc1C(=O)Nc1c(-c2ccccc2)nc2ccccn12  8.42%
36. O=[N+]([O-])c1cc(S(=O)(=O)NC2=NCCCCC2)ccc1Cl  10.5%
37. COc1ccc(CNC(=O)c2nnn(CC(=O)Nc3cc(C)cc(C)c3)c2N)cc1  11.9%
38. Cc1cn([C@H]2C[C@H](N=[N+]=[N-])[C@@H](CO)O2)c(=O)[nH]c1=O  13.9%
39. COc1ccc(C(=O)NCC(=O)N/N=C/c2ccc(C)o2)cc1OC  16.4%
40. CC(Nc1nc(C(F)(F)F)nc2ccccc12)c1cccs1 (stereo not drawn)  21.4%
41. COc1ccccc1N(CC(=O)NC(C)(C)C)C(=O)C1CSC(=O)C1 (stereo not drawn)  26.2%
42. COc1ccc(C)cc1NC(=O)Cc1c(C(=O)O)n(C)c2ccccc12  28.9%
